Measurements reported in PubChem BioAssay AID1030 (National Center for Advancing Translational Sciences (NCATS), 2008).
Screen size: about 220,000 compounds; about 16,000 (7.3%) were called active. The shares of active, inactive and inconclusive entries below differ from those in the screen. Calls follow the shape of the dose curve; as a rule, active = well fitted inhibition curve with a large enough effect (not every such curve was filed as active); inconclusive = small, poorly fitted or top-dose-only effect, or another doubt; inactive = no such curve, though single readings can be large or run the other way. Potencies of inconclusive entries are left out as doubtful fits.

Molecular target: Aldehyde dehydrogenase 1A1 (Homo sapiens) (UniProt P00352)
Assay: qHTS Assay for Inhibitors of Aldehyde Dehydrogenase 1 (ALDH1A1);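 as to activity, negative = inhibition: plate controls were no enzyme wells and a reference inhibitor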
Conditions: Purified ALDH1A1, NADH fluorescence, propionaldehyde substrate; series mostly up to 75.3 µM; activity, negative = inhibition: at the top concentration
Potency is read from the fitted curve at half-maximal effect; tags tell the direction and shape of the fitted curve.

Chain of UniProt P00352 (P00352 whole entry, looked up): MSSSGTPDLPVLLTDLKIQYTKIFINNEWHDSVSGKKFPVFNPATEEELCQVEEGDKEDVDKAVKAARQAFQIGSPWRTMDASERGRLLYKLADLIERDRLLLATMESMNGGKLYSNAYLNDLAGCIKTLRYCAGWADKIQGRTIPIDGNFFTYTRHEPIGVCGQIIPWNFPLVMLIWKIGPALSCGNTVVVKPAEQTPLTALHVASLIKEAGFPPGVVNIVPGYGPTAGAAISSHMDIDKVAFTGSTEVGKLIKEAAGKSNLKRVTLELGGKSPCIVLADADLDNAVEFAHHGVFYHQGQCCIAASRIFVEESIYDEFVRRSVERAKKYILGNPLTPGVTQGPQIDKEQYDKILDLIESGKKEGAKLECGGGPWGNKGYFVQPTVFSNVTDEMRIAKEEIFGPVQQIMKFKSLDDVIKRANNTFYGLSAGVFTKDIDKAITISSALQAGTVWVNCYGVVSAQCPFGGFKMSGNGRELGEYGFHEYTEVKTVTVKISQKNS

| Structure (SMILES) | activity, negative = inhibition | Potency |
| --- | --- | --- |
| O=C/C(=C\Nc1ccc(C(=O)N2CCOCC2)cc1)c1nc2ccccc2o1 | inactive: -11.2% | – |
| CCCS(=O)(=O)c1nc(S(=O)(=O)c2ccc(C)cc2)c(NCc2ccco2)s1 | – | inconclusive [inhibitor, partial curve] |
| O=C(CC(=O)NN=C1CCCCCC1)NCc1cccnc1 | – | inconclusive [inhibitor, single point] |
| COc1ccc(-n2c(SC3CCOC3=O)nc3ccccc3c2=O)cc1Cl (centres undefined) | – | inconclusive [inhibitor, single point] |
| O=C(c1ccc(Cl)nc1)N1CCc2ccccc2C1 | inactive: -1.25% | – |
| CCOC(=O)C=Nc1c(N)n(C)c(=O)n(C)c1=O | – | inconclusive [inhibitor, partial curve] |
| CCn1c2ccccc2c2cc(NS(=O)(=O)c3ccc(C)cc3)ccc21 | inactive: -8.97% | – |
| CC(C)(C)Cc1nnc(NC(=O)Cc2ccc([N+](=O)[O-])cc2)s1 | – | active: 11.2 µM |
| Cc1cccc(NC(=S)N(c2ccccc2)C(C)C)c1C | – | inconclusive [inhibitor, partial curve, poor fit] |
| O=C(CCN1CCCCC1)c1ccccc1 | – | active: 1.12 µM |
| O=c1cc(CO)oc(C(Nc2cccc(C(F)(F)F)c2)c2ccccn2)c1O (centres undefined) | – | inconclusive [inhibitor, single point] |
| O=C(O)C1Cc2[nH]cnc2C(c2ccc(F)cc2)N1 (centres undefined) | – | inconclusive [inhibitor, single point] |
| CN(Cc1ccc2nonc2c1)Cc1nc(Cc2cccc(F)c2)no1 | – | inconclusive [inhibitor, partial curve] |
| CCOC(=O)Cn1cc(C#N)c2ccccc21 | inactive: -4.76% | – |
| N#Cc1c(C(F)(F)F)cc(-c2ccc(F)cc2)[nH]c1=O | – | inconclusive [inhibitor, partial curve] |
| CCOC(=O)c1c(C(F)(F)C(F)(F)C(F)(F)C(F)(F)F)n[nH]c1C | inactive: -2.71% | – |
| Cc1cc(NCc2ccccn2)n2nc(C)c(-c3ccc(Cl)cc3)c2n1 | – | inconclusive [inhibitor, partial curve] |
| O=C(C1CC(c2ccccc2O)=NO1)N1CCCCC1 (centres undefined) | – | inconclusive [inhibitor, partial curve] |
| O=C(Cn1c(=O)c(=O)n(Cc2ccccc2)c2ccc(Cl)cc21)NCC1CCCO1 (centres undefined) | – | inconclusive [inhibitor, single point] |
| CCC12CN3CC(CC)(CN(C1)C31C(=O)N(C)c3ccc(C)cc31)C2=O (centres undefined) | – | inconclusive [inhibitor, partial curve] |
| c1coc(-c2nc3nc4ccccc4nc3n2-c2ccc3c(c2)OCCO3)c1 | – | inconclusive [inhibitor, partial curve] |
| Cc1cc(C)c2nc(-c3ccccn3)cc(C(=O)Nc3ccc(S(=O)(=O)Nc4onc(C)c4C)cc3)c2c1 | inactive: -6.43% | – |
| COC(=O)c1cccc(NC(=O)CSc2ncn[nH]2)c1 | – | inconclusive [inhibitor, single point] |
| Nc1nn2c(C(F)(F)F)cc(=O)[nH]c2c1N=Nc1cccc(F)c1 | inactive: -4.11% | – |
| CCC(C)NC(=O)CSc1nc2ccc(N3CCOCC3)cc2c(=O)n1CCc1ccccc1 (centres undefined) | – | inconclusive [inhibitor, partial curve] |

| Structure (SMILES) | activity, negative = inhibition | Potency |
| --- | --- | --- |
| CCC(C)n1cnc2c(c1=O)c1nc3ccccc3nc1n2Cc1ccc(OC)cc1 (centres undefined) | – | inconclusive [inhibitor, single point] |
| O=C(O)CCC(=O)c1ccc[nH]1 | inactive: 7.29% [at 13.5 µM] | – |
| COc1cc([N+](=O)[O-])ccc1NC(=O)CCCOc1cc(C)ccc1C | – | active: 28.2 µM |
| COc1cccc2cc(C(=O)N3CCN(C/C=C/c4ccccc4)CC3)c(=O)oc12 | – | inconclusive [inhibitor, partial curve] |
| CCN1C(=O)CC(N2CCN(CC(=O)NC(C)C)CC2)C1=O (centres undefined) | inactive: 8.96% | – |
| Cc1cnc(CN(C)C(=O)c2cc(COc3c(F)cccc3F)on2)[nH]1 | – | inconclusive [inhibitor, single point] |
| C=CCn1c(CCNC(=O)c2ccccc2F)nnc1SCC(=O)Nc1nc2ccccc2s1 | – | inconclusive [inhibitor, single point] |
| Cc1ccc(O)c(N=NC2=C(O)CC(C)(C)CC2=O)c1 | – | active: 6.31 µM |
| CCCCc1cc(=O)oc2cc(OCc3cc(OC)c(OC)c(OC)c3)c(Cl)cc12 | inactive: -4.42% | – |
| CCOC(=O)c1ccc(NC(=S)N2CCN(Cc3ccccc3)CC2)cc1 | inactive: 2.34% | – |
| COc1cc(NCCCCCCCN)c2ncccc2c1 | – | active: 3.55 µM |
| O=C(c1cccs1)c1no[n+]([O-])c1C(=O)c1cccs1 | – | active: 0.282 µM |
| COc1ccc(CCC(C)Nc2ccc(F)c(F)c2)cc1 (centres undefined) | – | inconclusive [inhibitor, single point] |
| OC(CNCC(c1ccco1)N1CCCCC1)c1ccccc1 (centres undefined) | – | active: 17.8 µM |
| COc1cccc(N2CC(C(=O)Nc3nnc(SCc4ccccn4)s3)CC2=O)c1 (centres undefined) | – | inconclusive [inhibitor, single point] |
| COc1ccc(-n2nc([N+](=O)[O-])c(=NCc3ccc4c(c3)OCO4)n2O)cc1 | – | inconclusive [inhibitor, partial curve] |
| CC(=O)OC[C@H]1O[C@@H](O/N=C(\C)CCN2CCCc3nc(C)c(C)cc32)[C@H](OC(C)=O)[C@@H](OC(C)=O)[C@H]1OC(C)=O | – | inconclusive [inhibitor, single point] |
| O=C(Cn1cnc2c(nnn2Cc2ccc(Cl)cc2)c1=O)N1CCN(c2ccccc2)CC1 | – | inconclusive [inhibitor, single point] |
| c1cncc(-c2nc(NCCN3CCOCC3)c3ccccc3n2)c1 | inactive: -5.73% | – |
| COc1ccc(N(CC(O)Cn2nnc3ccccc32)S(=O)(=O)c2ccc(C)cc2)cc1 (centres undefined) | – | inconclusive [inhibitor, partial curve] |
| CCC1CCCCN1CC(O)Cn1c2ccccc2n2c(=O)cc(C)c(C#N)c12 (centres undefined) | – | inconclusive [inhibitor, single point] |
| Cc1cccc(Nc2nnc(SCC(=O)Nc3ncc(C(F)(F)F)cc3Cl)s2)c1C | inactive: -5.28% | – |
| CCSc1nnc(NC(=O)c2cccnc2Cl)s1 | – | active: 25.1 µM |
| CSC(=S)N/N=C/c1ccccc1 | – | inconclusive [inhibitor, single point] |
| CCn1c(-c2csc3ccccc23)n[nH]c1=S | – | inconclusive [inhibitor, partial curve] |

| Structure (SMILES) | activity, negative = inhibition | Potency |
| --- | --- | --- |
| N#Cc1cc2c(nc1SCC1COc3ccccc3O1)CCC2 (centres undefined) | – | inconclusive [inhibitor, partial curve] |
| C[C@@H]1CC=C[C@@H]2[C@H]1C(=O)N(Cc1ccccc1)[C@H]2c1cccc(C#Cc2ccccc2)c1 | – | inconclusive [inhibitor, single point] |
| CN1/C(=C\C(=O)CSc2ncn[nH]2)C(C)(C)c2ccccc21 | – | inconclusive [inhibitor, single point] |
| Clc1ccc(OCCCn2ccnc2)c(Br)c1 | – | inconclusive [inhibitor, partial curve] |
| COc1ccc(N2CCN(CCCNS(=O)(=O)c3ccc4c(c3)oc(=O)n4C)CC2)cc1 | – | inconclusive [inhibitor, partial curve] |
| Cc1nc(C)c(CCNC(=O)c2ccccc2)s1 | inactive: 1.44% | – |
| COc1ccc(CN2CC(C(=O)NCCC3=CCCCC3)CC2=O)cc1 (centres undefined) | – | inconclusive [inhibitor, single point] |
| CC1=CCC(C(=O)O)C(C(=O)Nc2nc3ccc(S(C)(=O)=O)cc3s2)C1 (centres undefined) | – | active: 0.224 µM |
| O=C(NCCC(c1ccccc1)c1ccccc1)c1ccc(Br)o1 | – | inconclusive [inhibitor, single point] |
| CCCC(=O)NCCc1c2n(c3ccc(OC)cc13)Cc1ccccc1-2 | – | inconclusive [inhibitor, partial curve] |
| Cn1c(C(=O)NCc2cccs2)cc2oc3ccccc3c21 | inactive: -7.82% | – |
| COc1ccc(C2CC(c3ccccc3OC(C)=O)=NN2C(=O)/C=C/c2ccccc2)cc1OC (centres undefined) | – | inconclusive [inhibitor, single point] |
| CN(C(=O)COc1ncnc2c1cnn2-c1ccccc1)C1CCCCC1 | inactive: -9.75% | – |
| CCCC[n+]1c(C)sc2ccc(C)cc21 | inactive: 4.56% | – |
| COc1ccc(-n2c(C)cc(/C=C3\SC(=S)NC3=O)c2C)cc1 | – | inconclusive [inhibitor, partial curve] |
| COc1ccc(/C=N/NC(=S)Nc2c(C)n(C)n(-c3ccccc3)c2=O)cc1OC | inactive: -3.33% | – |
| S=C1NCN(Cc2ccco2)CN1CCc1ccccc1 | – | inconclusive [inhibitor, single point] |
| O=C(CSc1ncnc2ccccc12)Nc1ccc2c(c1)OCCO2 | inactive: -3.47% | – |
| COc1cccc(NC(=O)COC(=O)CCS(=O)(=O)c2ccc(C)cc2)c1 | – | inconclusive [inhibitor, single point] |
| COc1ccc(Cl)cc1NC(=O)c1cc(-c2ccccc2O)n[nH]1 | inactive: -13.3% | – |
| Cc1cc(C)nc(SCc2nnc(SCC(=O)OC3CCCCC3)o2)n1 | – | inconclusive [inhibitor, partial curve] |
| O=C1/C(=C/c2ccco2)Cc2ccccc21 | – | inconclusive [inhibitor, single point] |
| Cc1nnc(NC(=O)Oc2ccccc2)s1 | inactive: 9.22% | – |
| COc1ccc(CCNC(=O)C2CCN(C(=O)c3ccc([N+](=O)[O-])cc3)CC2)cc1 | – | inconclusive [inhibitor, single point] |
